# Some of the results follow.
# B1: MIC1 (Toxoplasma gondii), O00834 (protein)
# chain: VGPEAYGEASHSHSPASGRYIQQMLDQRCQEIAAELCQSGLRKMCVPSSRIVARNAVGITHQNTLQWRCFDTASLLESNQENNGVNCVDDCGHTIPCPGGVHRQNSNHATRHEILSKLVEEGVQRFCSPYQASANKYCNDKFPGTIARRSKGFGNNVEVAWRCYEKASLLYSVYAECASNCGTTWYCPGGRRGTSTELDKRHYTEEEGIRQAIGSVDSPCSEVEVCLPKDENPPLCLDESGQISRT
# Legend:
# Test in all cases: glycan array binding signal (z-score within array); higher = stronger binding
# Settings in all cases: glycan notation: IUPAC condensed, linker removed
# Gal(a1-6)Glc = target: Gal(a1-6)Glc
# In short: (§1)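 Columns mapping to the same glycan were averaged after glycan names were converted to IUPAC-condensed notation. The data come from 3228 arrays in the Consortium for Functional Glycomics database, limited to those with an available protein sequence. Binding is reported as a within-array Z-score averaged across arrays of one protein sequence and across linkers.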
# Gal(b1-3)GalNAc = target: Gal(b1-3)GalNAc
# In short: as §1
# [1] = target: Gal(b1-3)GalNAc(b1-4)Gal(b1-4)Glc
# In short: as §1
# [2] = target: Gal(b1-3)GalNAc(b1-4)Gal3S(b1-4)Glc
# In short: as §1
# [3] = target: Gal(b1-3)GalNAc(b1-4)[Neu5Ac(a2-3)]Gal(b1-4)Glc
# In short: as §1
# [4] = target: Gal(b1-3)GalNAc(b1-4)[Neu5Gc(a2-3)]Gal(b1-4)Glc
# In short: as §1
# Gal(b1-3)GlcNAc = target: Gal(b1-3)GlcNAc
# In short: as §1
# [5] = target: Gal(b1-3)GlcNAc(b1-3)Gal(b1-4)Glc
# In short: as §1
# [6] = target: Gal(b1-3)GlcNAc(b1-3)Gal(b1-4)GlcNAc(b1-3)Gal(b1-4)Glc
# In short: as §1
# [7] = target: Gal(b1-3)GlcNAc(b1-3)Gal(b1-4)GlcNAc(b1-6)[Gal(b1-3)GlcNAc(b1-3)]Gal(b1-4)Glc
# In short: as §1
# [8] = target: Gal(b1-3)GlcNAc(b1-3)Gal(b1-4)[Fuc(a1-3)]GlcNAc(b1-3)Gal(b1-4)Glc
# In short: as §1
# [9] = target: Gal(b1-3)GlcNAc(b1-3)Gal(b1-4)[Fuc(a1-3)]GlcNAc(b1-6)[Gal(b1-3)GlcNAc(b1-3)]Gal(b1-4)Glc
# In short: as §1
# [10] = target: Gal(b1-3)GlcNAc(b1-3)[Fuc(a1-3)[Gal(b1-4)]GlcNAc(b1-6)]Gal(b1-4)Glc
# In short: as §1
# [11] = target: Gal(b1-3)GlcNAc(b1-3)[Fuc(a1-3)[Gal(b1-4)]GlcNAc(b1-6)]Gal(b1-4)]GlcNAc(b1-6)[Gal(b1-4)]GlcNAc(b1-3)]Gal(b1-4)Glc
# In short: as §1
# [12] = target: Gal(b1-3)GlcNAc(b1-3)[Gal(b1-4)GlcNAc(b1-6)]Gal(b1-4)Glc
# In short: as §1
# [13] = target: Gal(b1-3)GlcNAc(b1-3)[Gal(b1-4)GlcNAc(b1-6)]Gal(b1-4)GlcNAc(b1-6)[Gal(b1-3)GlcNAc(b1-3)]Gal(b1-4)Glc
# In short: as §1
# [14] = target: Gal(b1-3)[Fuc(a1-4)]GlcNAc
# In short: as §1
# [15] = target: Gal(b1-3)[Fuc(a1-4)]GlcNAc(b1-3)Gal(b1-4)Glc
# In short: as §1
# [16] = target: Gal(b1-3)[Fuc(a1-4)]GlcNAc(b1-3)Gal(b1-4)[Fuc(a1-3)]Glc
# In short: as §1
# [17] = target: Gal(b1-3)[Fuc(a1-4)]GlcNAc(b1-3)Gal(b1-4)[Fuc(a1-3)]GlcNAc(b1-3)Gal(b1-4)Glc
# In short: as §1
# [18] = target: Gal(b1-3)[Fuc(a1-4)]GlcNAc(b1-3)Gal(b1-4)[Fuc(a1-3)]GlcNAc(b1-6)[Gal(b1-3)[Fuc(a1-4)]GlcNAc(b1-3)]Gal(b1-4)Glc
# In short: as §1
# [19] = target: Gal(b1-3)[Fuc(a1-4)]GlcNAc(b1-3)[Fuc(a1-3)[Gal(b1-4)]GlcNAc(b1-6)]Gal(b1-4)Glc
# In short: as §1
# [20] = target: Gal(b1-3)[Neu5Ac(a2-6)]GalNAc(b1-4)Gal(b1-4)Glc
# In short: as §1
# [21] = target: Gal(b1-3)[Neu5Ac(a2-6)]GlcNAc(b1-3)Gal(b1-4)Glc
# In short: as §1
# Gal(b1-4)Glc = target: Gal(b1-4)Glc
# In short: as §1
# Gal(b1-4)GlcNAc = target: Gal(b1-4)GlcNAc
# In short: as §1
# [22] = target: Gal(b1-4)GlcNAc(b1-2)Man(a1-3)[Gal(b1-4)GlcNAc(b1-2)Man(a1-6)]Man(b1-4)GlcNAc(b1-4)GlcNAc
# In short: as §1
# [23] = target: Gal(b1-4)GlcNAc(b1-2)Man(a1-3)[Gal(b1-4)GlcNAc(b1-2)Man(a1-6)]Man(b1-4)GlcNAc(b1-4)[Fuc(a1-6)]GlcNAc
# In short: as §1
# [24] = target: Gal(b1-4)GlcNAc(b1-2)Man(a1-3)[Gal(b1-4)GlcNAc(b1-2)Man(a1-6)][GlcNAc(b1-4)]Man(b1-4)GlcNAc(b1-4)[Fuc(a1-6)]GlcNAc
# In short: as §1
# [25] = target: Gal(b1-4)GlcNAc(b1-2)Man(a1-3)[Man(a1-6)]Man(b1-4)GlcNAc(b1-4)GlcNAc
# In short: as §1
# [26] = target: Gal(b1-4)GlcNAc(b1-2)Man(a1-6)[GlcNAc(b1-2)Man(a1-3)]Man(b1-4)GlcNAc(b1-4)[Fuc(a1-6)]GlcNAc
# In short: as §1
# [27] = target: Gal(b1-4)GlcNAc(b1-2)Man(a1-6)[Man(a1-3)]Man(b1-4)GlcNAc(b1-4)GlcNAc
# In short: as §1
# [28] = target: Gal(b1-4)GlcNAc(b1-2)Man(a1-6)[Man(a1-3)]Man(b1-4)GlcNAc(b1-4)[Fuc(a1-6)]GlcNAc
# In short: as §1
# [29] = target: Gal(b1-4)GlcNAc(b1-2)[Gal(b1-4)GlcNAc(b1-4)]Man(a1-3)[Fuc(a1-3)[Gal(b1-4)]GlcNAc(b1-2)Man(a1-6)]Man(b1-4)GlcNAc(b1-4)GlcNAc
# In short: as §1
# [30] = target: Gal(b1-4)GlcNAc(b1-2)[Gal(b1-4)GlcNAc(b1-4)]Man(a1-3)[Gal(b1-4)GlcNAc(b1-2)Man(a1-6)]Man(b1-4)GlcNAc(b1-4)GlcNAc
# In short: as §1
# [31] = target: Gal(b1-4)GlcNAc(b1-2)[Gal(b1-4)GlcNAc(b1-4)]Man(a1-3)[Gal(b1-4)GlcNAc(b1-2)[Gal(b1-4)GlcNAc(b1-6)]Man(a1-6)]Man(b1-4)GlcNAc(b1-4)GlcNAc
# In short: as §1
# Gal(b1-4)GlcNAc(b1-3)Fuc = target: Gal(b1-4)GlcNAc(b1-3)Fuc
# In short: as §1
# [32] = target: Gal(b1-4)GlcNAc(b1-3)Gal(b1-4)Glc
# In short: as §1
binder,measurement,setting,value
B1,glycan array binding signal (z-score),Gal(a1-6)Glc,-0.287
same,glycan array binding signal (z-score),Gal(b1-3)GalNAc,-0.3
same,glycan array binding signal (z-score),[1],-0.293
same,glycan array binding signal (z-score),[2],-0.271
same,glycan array binding signal (z-score),[3],-0.391
same,glycan array binding signal (z-score),[4],-0.079
same,glycan array binding signal (z-score),Gal(b1-3)GlcNAc,-0.461
same,glycan array binding signal (z-score),[5],-0.425
same,glycan array binding signal (z-score),[6],-0.279
same,glycan array binding signal (z-score),[7],-0.278
same,glycan array binding signal (z-score),[8],-0.312
same,glycan array binding signal (z-score),[9],-0.312
same,glycan array binding signal (z-score),[10],-0.312
same,glycan array binding signal (z-score),[11],-0.312
same,glycan array binding signal (z-score),[12],-0.364
same,glycan array binding signal (z-score),[13],-0.296
same,glycan array binding signal (z-score),[14],-0.287
same,glycan array binding signal (z-score),[15],-0.417
same,glycan array binding signal (z-score),[16],-0.296
same,glycan array binding signal (z-score),[17],-0.298
same,glycan array binding signal (z-score),[18],-0.266
same,glycan array binding signal (z-score),[19],-0.308
same,glycan array binding signal (z-score),[20],-0.278
same,glycan array binding signal (z-score),[21],-0.412
same,glycan array binding signal (z-score),Gal(b1-4)Glc,-0.36
same,glycan array binding signal (z-score),Gal(b1-4)GlcNAc,-0.458
same,glycan array binding signal (z-score),[22],-0.443
same,glycan array binding signal (z-score),[23],-0.3
same,glycan array binding signal (z-score),[24],-0.312
same,glycan array binding signal (z-score),[25],-0.312
same,glycan array binding signal (z-score),[26],-0.287
same,glycan array binding signal (z-score),[27],-0.287
same,glycan array binding signal (z-score),[28],-0.312
same,glycan array binding signal (z-score),[29],-0.312
same,glycan array binding signal (z-score),[30],-0.279
same,glycan array binding signal (z-score),[31],-0.309
same,glycan array binding signal (z-score),Gal(b1-4)GlcNAc(b1-3)Fuc,-0.287
same,glycan array binding signal (z-score),[32],-0.426
